About 2,200 (0.71%) of roughly 310,000 compounds showed an effect of 50% or more. Effects have a minus sign here. Some of the results follow.
biological target: human ether-à-go-go-related gene (hERG) potassium channel (human, UniProt Q12809); assay: primary screen, population patch clamp on CHO cells stably expressing hERG
Sequence (Q12809 whole entry, looked up): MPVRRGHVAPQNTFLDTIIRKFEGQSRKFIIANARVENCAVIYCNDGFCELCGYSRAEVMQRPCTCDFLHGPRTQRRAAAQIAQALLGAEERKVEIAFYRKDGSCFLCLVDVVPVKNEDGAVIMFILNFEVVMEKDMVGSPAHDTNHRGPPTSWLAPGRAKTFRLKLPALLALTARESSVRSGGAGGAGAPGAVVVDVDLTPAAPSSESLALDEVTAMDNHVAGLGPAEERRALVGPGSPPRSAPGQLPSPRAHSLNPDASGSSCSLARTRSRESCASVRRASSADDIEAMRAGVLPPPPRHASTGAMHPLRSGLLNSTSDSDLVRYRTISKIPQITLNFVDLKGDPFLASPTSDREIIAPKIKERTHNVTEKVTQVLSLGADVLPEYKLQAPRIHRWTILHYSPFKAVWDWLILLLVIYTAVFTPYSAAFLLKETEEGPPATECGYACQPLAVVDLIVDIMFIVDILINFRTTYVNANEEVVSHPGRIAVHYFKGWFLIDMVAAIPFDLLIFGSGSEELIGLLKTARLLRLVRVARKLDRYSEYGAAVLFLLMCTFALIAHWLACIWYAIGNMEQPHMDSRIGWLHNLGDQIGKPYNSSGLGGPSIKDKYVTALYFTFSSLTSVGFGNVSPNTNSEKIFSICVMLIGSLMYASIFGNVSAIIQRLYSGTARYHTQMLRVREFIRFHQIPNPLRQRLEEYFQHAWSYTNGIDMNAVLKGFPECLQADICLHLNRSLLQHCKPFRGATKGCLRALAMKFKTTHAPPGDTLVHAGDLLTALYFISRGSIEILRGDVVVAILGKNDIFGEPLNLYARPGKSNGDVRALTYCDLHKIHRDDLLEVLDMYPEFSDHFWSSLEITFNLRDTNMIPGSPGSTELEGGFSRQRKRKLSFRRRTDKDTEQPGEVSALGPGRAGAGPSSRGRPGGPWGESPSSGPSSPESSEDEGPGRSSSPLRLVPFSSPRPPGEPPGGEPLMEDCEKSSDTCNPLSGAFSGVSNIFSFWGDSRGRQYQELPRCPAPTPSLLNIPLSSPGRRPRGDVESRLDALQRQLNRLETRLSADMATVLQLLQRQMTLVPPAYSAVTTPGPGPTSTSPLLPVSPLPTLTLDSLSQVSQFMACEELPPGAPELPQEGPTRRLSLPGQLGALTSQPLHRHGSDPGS

SMILES | hERG current change (%, negative = inhibition) at 1uM [%]
O=C(NC(Cc1ccccc1)C(=O)O)/C(=C\c1ccccc1F)NC(=O)c1ccccc1 (centres unmarked) | 19.2
CC(C)CN(C(=O)CN1CCN(S(=O)(=O)c2ccccc2)CC1)c1c(N)n(CC(C)C)c(=O)[nH]c1=O | -2.18
CCOC(=O)N1CCN=C1SCc1ccc(C(F)(F)F)cc1 | 8.48
CCSC1=NN2CCS(=O)(=O)N=C2S1 | 23
Cn1c(=O)oc2cc(S(=O)(=O)N3CCC(C(=O)N4CCc5ccccc5C4)CC3)ccc21 | 17.5
O=S(=O)(NCCOCC(F)(F)F)c1ccc2oc3ccccc3c2c1 | 6.44
Cc1cc(C)cc(NC(=S)N=Nc2c(O)n(C)c3ccc(S(=O)(=O)N4CCOCC4)cc23)c1 | 0.994
COc1ccc(NC(=O)COc2nc(N(C)C)nc(N(C)C)n2)cc1 | 8.43
O=C(NCCCN1CCOCC1)c1ccc(S(=O)(=O)Nc2cccc(C(F)(F)F)c2)cc1 | 4.95
Cc1ccc(C(=O)Nc2nc(-c3ccc(F)cc3)cs2)o1 | 0.92
O=C1CCCCC1Sc1nnc(Cc2cccs2)n1CCc1ccccc1 (centres unmarked) | 5.25
CCOC(=O)c1c(C)[nH]c(C(=O)N2CCCC(C(=O)c3cccc(OC)c3)C2)c1C (centres unmarked) | 2.58
O=C(CN1C(=O)c2cccc3cccc1c23)Nc1cccnc1 | 0.892
OC(c1ccccn1)(c1ccccn1)c1ccccn1 | 9.51
Cc1ccsc1/C=N/NC(=O)c1ccc(-n2cccc2)cc1 | 11.2
O=C(COC(=O)COc1ccc(Cl)cc1)NC1CCCCC1 | 10.9
O=C(O)CCc1ccc(-c2ccc(Cl)cc2)n1Cc1ccco1 | 3.04
CCOC(=O)c1cccc(NC(=O)c2cc3ccccc3o2)c1 | 10.2
C[C@]12CCC(=O)CC1CCC1C2CC[C@@]2(C)C1CC[C@@]21CCO1 (some centres unmarked) | 11
CNC(=S)N1CCN(c2c(F)cc3c(=O)c(C(=O)O)cn(C4CC4)c3c2OC)CC1C (centres unmarked) | 12.9
Fc1ccc2nc(Nc3nc4c(F)cccc4s3)sc2c1 | 18.1
O=S(=O)(c1ccccc1Cl)N1CCCC1c1nc(-c2ccccc2Cl)no1 (centres unmarked) | 16.2

SMILES | hERG current change (%, negative = inhibition) at 1uM [%]
Cn1nccc1C(=O)N1CCN(C23CC4CC(CC(C4)C2)C3)CC1 | -5.46
NS(=O)(=O)c1ccc(N2N=C(c3ccccc3)CC2c2cccc(F)c2)cc1 (centres unmarked) | 7.04
COC(=O)CC1C(=O)NCCN1C(=O)c1sc2ccccc2c1Cl (centres unmarked) | 11.9
O=C(NCCCN1CCOCC1)c1onc(CSc2ccc(F)c(F)c2)c1C(=O)NCCCN1CCOCC1 | 13.2
NC(=O)c1ccc(NC(=O)CCC(=O)N2CCN(S(=O)(=O)c3ccc(Cl)cc3)CC2)cc1 | 8
O=C(c1ccc([N+](=O)[O-])s1)N1CCc2ccccc2C1 | 21.2
COc1ccc(-c2nnc(SC(=O)N3c4ccccc4Sc4ccccc43)o2)cc1 | 17.6
Cn1c(=O)[nH]c(=O)c2c1nc(N1CCNCC1)n2Cc1ccccc1 | -2.29
COC(=O)c1cc(C(=O)N2CCOCC2)cc([N+](=O)[O-])c1 | 15.1
S=c1[nH]nc(CSc2nc3ccccc3s2)n1Cc1ccccc1 | 8.36
CCCc1nn2c(=O)cc(COc3cccc(NC(=O)c4ccco4)c3)nc2s1 | -0.535
COc1ccc(-c2nc(N3CCCC3)[nH]c(=O)c2C#N)cc1 | 11.6
Cc1nn(Cc2ccccc2)c(C)c1CNC(=O)[C@H](C)N=C1NS(=O)(=O)c2ccccc21 | 10.4
Cc1cc(OCC(=O)OCC(=O)N(C)Cc2ccccc2C)ccc1Cl | 11.1
COc1ccc(S(=O)(=O)NC2(C(F)(F)F)NC(=O)N(CCc3ccccc3)C2=O)cc1 (centres unmarked) | 10.1
COc1ccccc1C(=O)NCC1CCN(c2ccc(S(=O)(=O)N3CCOCC3)cc2)CC1 | -0.111
NC1=NC(c2cn[nH]c2-c2cccc(F)c2)n2c(nc3ccccc32)N1 (centres unmarked) | 10.3
NC(=O)CSc1nc(C23CC4CC(CC(C4)C2)C3)nc2ccccc12 | 1.28
CCOc1ccccc1NC(=S)NC(=O)CCCOc1ccc(Cl)cc1Cl | 9.57
COc1ccc(-c2cn(-c3ccc(C)cc3)c(=O)n2CC(=O)Nc2ccc(OC)cc2OC)cc1 | 8.62
CNC(=O)CN1C(=O)c2ccccc2S1(=O)=O | 13.3
O=C1CCc2cc(S(=O)(=O)N3CCN(C(=O)c4ccco4)CC3)ccc2N1 | -10.7

SMILES | hERG current change (%, negative = inhibition) at 1uM [%]
Cc1c(-c2ccccc2)nc(N)c(C#N)c1-c1cccs1 | 3.37
CC(=O)C(Sc1ccc2nnc(-c3cccnc3)n2n1)C(C)=O | 4.31
COc1ccc(N2C(=O)[C@@H]3[C@H](C2=O)[C@H]2c4ccccc4C=CN2[C@@H]3C(=O)Nc2ccccc2)cc1 | -7.76
CC1(C)CC(=O)C2=C(C1)Nc1ccccc1NC2c1ccc(F)cc1 (centres unmarked) | 11.4
CCOC(=O)CSc1nnc(CNC(=O)c2cccs2)n1CCc1ccccc1 | -6.88
CCCN(C(=O)COC(=O)CCOc1ccccc1C)c1c(N)n(Cc2ccccc2)c(=O)[nH]c1=O | 9.64
CCC(=O)/C=C1\Sc2ccccc2N1CC | 4.38
CCCNS(=O)(=O)c1ccc(CCC(=O)N2CCN(c3ccc(OC)cc3)CC2)cc1 | -6.53
COCCn1c(SCc2nnc(-c3ccc(OC)c(OC)c3)o2)nnc1-c1ccncc1 | 6.49
Cc1ccccc1N/C(=C(/C(Cl)=C(Cl)Cl)[N+](=O)[O-])n1nnc2ccccc21 | -0.222
CN(CC#CC(O)(c1ccccc1)c1ccccc1)C(C)(C)C | -40.8
COCc1cc(C)nc2sc(C(=O)N3CCCC3)c(N)c12 | 9.46
OCCN1CCN(CC#CCC(c2ccccc2)c2ccccc2)CC1 | 8.38
CCS(=O)(=O)N1CCN=C1SCc1ccccc1 | 14
CCN1CCN(c2ccc(S(=O)(=O)N3CCOCC3)cc2NC(=O)COc2ccc(F)cc2Cl)CC1 | -4.26
COCCN(C(=S)Nc1c(C)cccc1C)C(C)c1cccnc1 (centres unmarked) | 13
CCOC(=O)Cn1nc(NC(=O)c2cc(OC)cc(OC)c2)cc1C | 7.76
COc1ccc(-n2nc3ccc(NS(C)(=O)=O)cc3n2)cc1Cl | 2.73
COCCNC(=O)Cn1cnc([N+](=O)[O-])n1 | 9.22
CC(Cc1ccccn1)NC(=O)c1ccc(OC2CCN(Cc3ccccn3)CC2)cc1 (centres unmarked) | 14.8
O=[N+]([O-])/C(=C\Nc1ccccc1Cl)S(=O)(=O)c1ccccc1 | 6.99
Cc1ccc(C(=O)Nc2c(C(=O)NCc3ccco3)cnn2-c2ccccc2)cc1 | -1.88

SMILES | hERG current change (%, negative = inhibition) at 1uM [%]
CCNC(=O)c1sc(-c2ccccc2)nc1C | -8.16
Clc1ccc(OCCN2CCOCC2)cc1 | 12.9
Cc1ccc(N(C(=O)c2ccco2)C(C(=O)NC2CCCC2)c2cccnc2)cc1C (centres unmarked) | 9.71
COCCNC(=O)C(c1ccc(C)cc1)N(CCOC)C(=O)CCC(=O)Nc1nccs1 (centres unmarked) | 17.7
CC(C)(C)NCCCCOc1ccc(F)cc1 | 8.56
CCn1cc(C2N3CC4(C)CN2CC(C)(C3)C4=O)c2ccccc21 (centres unmarked) | 4.63
Cc1noc(C)c1S(=O)(=O)N1CCC(C(=O)N2CCC(N3CCCCC3)CC2)CC1 | 16.3
CCOC(=O)c1[nH]c(C)c(C(=O)OCC(=O)NC(C)c2ccc(F)cc2)c1C (centres unmarked) | 2.48
CC(C)(CSc1nncn1N)NS(=O)(=O)c1ccc(Cl)cc1 | 13.5
Cc1cc(C(=O)NNC(=O)c2ccc(S(=O)(=O)N(C)C)cc2)c(C)o1 | 23.4
O=C(CN1C(=O)NC2(CCc3ccccc32)C1=O)NCCc1ccccc1 (centres unmarked) | 3.93
CCOc1ccc(S(=O)(=O)N(CC)CC(=O)NCc2ccco2)cc1C | 11.5
Cc1ccc(F)c(NC(=O)c2cncn2-c2ccccc2)c1 | 9.29
CC1CN(C(=O)c2ccc3c(c2)OCO3)OC(c2ccccc2)O1 (centres unmarked) | 8.87
CCn1c(C)nc2cc(C(=O)N/N=C/c3cccc(O)c3O)ccc21 | 11.3
Nc1nc(-c2ccccn2)nc(N)c1Cc1ccc(Cl)cc1Cl | 13.6
O=C(Nc1ccc(Cl)c(Cl)c1)Nc1cc(S(=O)(=O)N2CCOCC2)ccc1N1CCCC1 | 1.63
Clc1cccc(Cl)c1COn1nnc2ccccc21 | 6.07
CCn1c(=O)c(C(=O)Nc2nc3ccccc3[nH]2)c(O)c2ccccc21 | -0.0991
CSc1ccc(CCNC(=O)c2cccc3c2C(=O)N(C2CCCCC2)C3)cc1 | 4.25
